# Where a chain is given by its changes, count along the chain named. The list shows a part of the results.
# B1: UUACAGU (DNA:RNA)
# RNA: GGGAGACCGGAAUUCAGAUUGUCCUUACAGUUUAAAUCCCGUCGUAGCCACCA
# DNA 1: CAATCTGAATTCCGGTCTCCC
# DNA 2: TGGTGGCTACGACGGGATT
# B2: CAGGCAA (DNA:RNA)
# RNA: GGGAGACCGGAAUUCAGAUUGUCCCAGGCAAUUAAAUCCCGUCGUAGCCACCA
# DNA 1: CAATCTGAATTCCGGTCTCCC
# DNA 2: TGGTGGCTACGACGGGATT
# B3: GUUGGGU (DNA:RNA)
# RNA: B1 RNA with U25G, A27U, C28G, A29G
# DNA 1: CAATCTGAATTCCGGTCTCCC
# DNA 2: TGGTGGCTACGACGGGATT
# B4: AUGUAGA (DNA:RNA)
# RNA: B1 RNA with U25A, A27G, C28U, U31A
# DNA 1: CAATCTGAATTCCGGTCTCCC
# DNA 2: TGGTGGCTACGACGGGATT
# B5: GGGUAUG (DNA:RNA)
# RNA: B2 RNA with C25G, A26G, G28U, C29A, A30U, A31G
# DNA 1: CAATCTGAATTCCGGTCTCCC
# DNA 2: TGGTGGCTACGACGGGATT
# B6: CAACGAG (DNA:RNA)
# RNA: B2 RNA with G27A, G28C, C29G, A31G
# DNA 1: CAATCTGAATTCCGGTCTCCC
# DNA 2: TGGTGGCTACGACGGGATT
# B7: GCGUGGA (DNA:RNA)
# RNA: B2 RNA with C25G, A26C, G28U, C29G, A30G
# DNA 1: CAATCTGAATTCCGGTCTCCC
# DNA 2: TGGTGGCTACGACGGGATT
# B8: GACUGCC (DNA:RNA)
# RNA: B2 RNA with C25G, G27C, G28U, C29G, A30C, A31C
# DNA 1: CAATCTGAATTCCGGTCTCCC
# DNA 2: TGGTGGCTACGACGGGATT
# B9: CAGACUG (DNA:RNA)
# RNA: B2 RNA with G28A, A30U, A31G
# DNA 1: CAATCTGAATTCCGGTCTCCC
# DNA 2: TGGTGGCTACGACGGGATT
# B10: ACGCUAA (DNA:RNA)
# RNA: B2 RNA with C25A, A26C, G28C, C29U
# DNA 1: CAATCTGAATTCCGGTCTCCC
# DNA 2: TGGTGGCTACGACGGGATT
# B11: CUUACGG (DNA:RNA)
# RNA: B2 RNA with A26U, G27U, G28A, A30G, A31G
# DNA 1: CAATCTGAATTCCGGTCTCCC
# DNA 2: TGGTGGCTACGACGGGATT
# B12: GCUUCAU (DNA:RNA)
# RNA: B2 RNA with C25G, A26C, G27U, G28U, A31U
# DNA 1: CAATCTGAATTCCGGTCTCCC
# DNA 2: TGGTGGCTACGACGGGATT
# B13: UAUGCGG (DNA:RNA)
# RNA: B2 RNA with C25U, G27U, A30G, A31G
# DNA 1: CAATCTGAATTCCGGTCTCCC
# DNA 2: TGGTGGCTACGACGGGATT
# B14: AAGUUAA (DNA:RNA)
# RNA: B2 RNA with C25A, G28U, C29U
# DNA 1: CAATCTGAATTCCGGTCTCCC
# DNA 2: TGGTGGCTACGACGGGATT
# B15: GAACAAC (DNA:RNA)
# RNA: B1 RNA with U25G, U26A, G30A, U31C
# DNA 1: CAATCTGAATTCCGGTCTCCC
# DNA 2: TGGTGGCTACGACGGGATT
# B16: UUGCCAC (DNA:RNA)
# RNA: B2 RNA with C25U, A26U, G28C, A31C
# DNA 1: CAATCTGAATTCCGGTCTCCC
# DNA 2: TGGTGGCTACGACGGGATT
# B17: ACCGCCU (DNA:RNA)
# RNA: B2 RNA with C25A, A26C, G27C, A30C, A31U
# DNA 1: CAATCTGAATTCCGGTCTCCC
# DNA 2: TGGTGGCTACGACGGGATT
# B18: CUAUUGU (DNA:RNA)
# RNA: B1 RNA with U25C, C28U, A29U
# DNA 1: CAATCTGAATTCCGGTCTCCC
# DNA 2: TGGTGGCTACGACGGGATT
# B19: GCAGCUC (DNA:RNA)
# RNA: B2 RNA with C25G, A26C, G27A, A30U, A31C
# DNA 1: CAATCTGAATTCCGGTCTCCC
# DNA 2: TGGTGGCTACGACGGGATT
# B20: GACUCGU (DNA:RNA)
# RNA: B2 RNA with C25G, G27C, G28U, A30G, A31U
# DNA 1: CAATCTGAATTCCGGTCTCCC
# DNA 2: TGGTGGCTACGACGGGATT
# B21: GGGCGAA (DNA:RNA)
# RNA: B2 RNA with C25G, A26G, G28C, C29G
# DNA 1: CAATCTGAATTCCGGTCTCCC
# DNA 2: TGGTGGCTACGACGGGATT
# B22: CACCCAU (DNA:RNA)
# RNA: B2 RNA with G27C, G28C, A31U
# DNA 1: CAATCTGAATTCCGGTCTCCC
# DNA 2: TGGTGGCTACGACGGGATT
# B23: CAUUGGU (DNA:RNA)
# RNA: B2 RNA with G27U, G28U, C29G, A30G, A31U
# DNA 1: CAATCTGAATTCCGGTCTCCC
# DNA 2: TGGTGGCTACGACGGGATT
# B24: CUUCACA (DNA:RNA)
# RNA: B1 RNA with U25C, A27U, G30C, U31A
# DNA 1: CAATCTGAATTCCGGTCTCCC
# DNA 2: TGGTGGCTACGACGGGATT
# B25: CUUUUAC (DNA:RNA)
# RNA: B2 RNA with A26U, G27U, G28U, C29U, A31C
# DNA 1: CAATCTGAATTCCGGTCTCCC
# DNA 2: TGGTGGCTACGACGGGATT
# B26: GCUAGCC (DNA:RNA)
# RNA: GGGAGACCGGAAUUCAGAUUGUCCGCUAGCCUUAAAUCCCGUCGUAGCCACCA
# DNA 1: CAATCTGAATTCCGGTCTCCC
# DNA 2: TGGTGGCTACGACGGGATT
# B27: AGCAAUU (DNA:RNA)
# RNA: B1 RNA with U25A, U26G, A27C, C28A, G30U
# DNA 1: CAATCTGAATTCCGGTCTCCC
# DNA 2: TGGTGGCTACGACGGGATT
# B28: CUAUCCG (DNA:RNA)
# RNA: B2 RNA with A26U, G27A, G28U, A30C, A31G
# DNA 1: CAATCTGAATTCCGGTCTCCC
# DNA 2: TGGTGGCTACGACGGGATT
# B29: GUUUACU (DNA:RNA)
# RNA: B26 RNA with C26U, A28U, G29A, C31U
# DNA 1: CAATCTGAATTCCGGTCTCCC
# DNA 2: TGGTGGCTACGACGGGATT
# B30: GCGUGAU (DNA:RNA)
# RNA: B26 RNA with U27G, A28U, C30A, C31U
# DNA 1: CAATCTGAATTCCGGTCTCCC
# DNA 2: TGGTGGCTACGACGGGATT
# B31: CAUGACC (DNA:RNA)
# RNA: B2 RNA with G27U, C29A, A30C, A31C
# DNA 1: CAATCTGAATTCCGGTCTCCC
# DNA 2: TGGTGGCTACGACGGGATT
# Target: T1, RBFOX1 RRM (Homo sapiens, UniProt Q9NWB1 109-208)
# T1 sequence: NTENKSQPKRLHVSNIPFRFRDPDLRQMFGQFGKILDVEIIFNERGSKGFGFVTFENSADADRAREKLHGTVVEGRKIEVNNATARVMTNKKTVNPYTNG
# Assay: EMSA; HiTS-Eq, 1 nM pool, 10 min; buffer printed only for the single-RNA assays: 10 mM Tris pH 7.5, 150 mM NaCl, 3.4 mM EDTA, 0.001% NP-40, 30 C
# Details: tags: His6 N-terminal (pET28a); label: 5' 32P
# Outline: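 These values rest on relative association constants, computed from read-count changes of each RNA species versus the control reaction and normalised to the cognate motif. Reads came from free RNA recovered by 8% native PAGE after purified RbFox RRM (wild type or mutant) at increasing concentrations was equilibrated for 10 min in 50 µL with 1 nM of a 5′-radiolabelled pool with 7 randomized nucleotides and DNA-annealed flanks.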
row,Binder,binding signal
1,B1,0.00852 KA relative to UGCAUGU
2,B2,0.00735 KA relative to UGCAUGU
3,B3,0.0137 KA relative to UGCAUGU
4,B4,0.00728 KA relative to UGCAUGU
5,B5,0.0229 KA relative to UGCAUGU
6,B6,0.00579 KA relative to UGCAUGU
7,B7,0.0179 KA relative to UGCAUGU
8,B8,0.0195 KA relative to UGCAUGU
9,B9,0.0132 KA relative to UGCAUGU
10,B10,0.00214 KA relative to UGCAUGU
11,B11,0.00764 KA relative to UGCAUGU
12,B12,0.00945 KA relative to UGCAUGU
13,B13,0.0177 KA relative to UGCAUGU
14,B14,0.00186 KA relative to UGCAUGU
15,B15,0.00288 KA relative to UGCAUGU
16,B16,0.0102 KA relative to UGCAUGU

row,Binder,binding signal
1,B17,0.00367 KA relative to UGCAUGU
2,B18,0.0108 KA relative to UGCAUGU
3,B19,0.00975 KA relative to UGCAUGU
4,B20,0.0194 KA relative to UGCAUGU
5,B21,0.0144 KA relative to UGCAUGU
6,B22,0.00273 KA relative to UGCAUGU
7,B23,0.0102 KA relative to UGCAUGU
8,B24,0.000879 KA relative to UGCAUGU
9,B25,0.00588 KA relative to UGCAUGU
10,B26,0.015 KA relative to UGCAUGU
11,B27,0.00513 KA relative to UGCAUGU
12,B28,0.00475 KA relative to UGCAUGU
13,B29,0.0106 KA relative to UGCAUGU
14,B30,0.0148 KA relative to UGCAUGU
15,B31,0.00439 KA relative to UGCAUGU

# Reference: publication PMC9911399, “Two distinct binding modes provide the RNA-binding protein RbFox with extraordinary sequence specificity”
